# Experimental data taken from the supplement of paper PMC12217912.
# The other results are listed elsewhere or left out. The full chains were built here from the parent and the listed change. Inactive controls read about 0.05.
# B1: TEV protease; numbered along this chain (parent)
# chain: MGESLFKGPRDYNPISSSICHLTNESDGHTTSLYGIGFGPFIITNKHLFRRNNGTLVVQSLHGVFKVKDTTTLQQHLVDGRDMIIIRMPKDFPPFPQKLKFREPQREERICLVTTNFQTKSMSSMVSDTSCTFPSGDGIFWKHWIQTKDGQCGSPLVSTRDGFIVGIHSASNFTNTNNYFTSVPKNFMELLTNQEAQQWVSGWRLNADSVLWGGHKVFMVKPEEPFQPVKEATQL
# Variants of: B1
# Assay: raw area under fraction-flipped curve 0-4 h after induction (AUC4h, not background-subtracted), DNA-recorder readout of cleavage of the substrate (dimensionless); higher = more cleavage of the substrate by the protease variant
# Settings: temperature: 34 °C; time window: 0-4 h after rhamnose induction
# Procedure: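 In vivo DNA recorder in E. coli TOP10(DE3) ΔrhaA at 34 °C. Each TEVp single-site mutant (parent TEVp 0) is paired with a single-site variant of the 7-mer TEVs (canonical ENLYFQ|S). The substrate sits between flexible linkers in a Bxb1-sfGFP-TEVs-SsrA fusion, so cleavage stabilises Bxb1 and speeds flipping of a recombination array, read by NGS. The value is the raw area under the fraction-flipped curve over 0-4 h after rhamnose induction (AUC4h), with ≥20 reads per time point. It is not background-subtracted; inactive controls average about 0.047.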
# 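Also: Bxb1 expression induced with 0.2% (w/v) L-rhamnose at OD600 near 0.5, cultures sampled hourly, flipped fraction per protease–substrate barcode pair counted by paired-end Illumina sequencing.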
Variant,area with substrate CNLYFQS,area with substrate DNLYFQS,area with substrate HNLYFQS,area with substrate INLYFQS,area with substrate MNLYFQS,area with substrate TNLYFQS,area with substrate FNLYFQS,area with substrate GNLYFQS,area with substrate LNLYFQS,area with substrate PNLYFQS,area with substrate SNLYFQS,area with substrate VNLYFQS,area with substrate WNLYFQS,area with substrate NNLYFQS,area with substrate YNLYFQS,area with substrate KNLYFQS,area with substrate QNLYFQS,area with substrate RNLYFQS
MGESLFKGPRDYNPISSSICHLTNESDGHTTSLYGIGFGPFIITNKHLFRRNNGTLVVQSLHGVFKVKDTTTLQQHLVDGRDMIIIRMPKDFPPFPQKLKVREPQREERICLVTTNFQTKSMSSMVSDTSCTFPSGDGIFWKHWIQTKDGQCGSPLVSTRDGFIVGIHSASNFTNTNNYFTSVPKNFMELLTNQEAQQWVSGWRLNADSVLWGGHKVFMVKPEEPFQPVKEATQL [F101V],0.0328,0.0461,0.0505,0.0549,0.0824,0.0512,,,,,,,,,,,,
MGESLFKGPRDYNPISSSICHLTNESDGHTTSLYGIGFGPFIITNKHLFRRNNGTLVVQSLHGVFKVKDTTTLQQHLVDGRDMIIIRMPKDFPPFPQKLKFREPQREERICLVTTNFQTKSMSSMVSDTSCTFPSGDGIFWKHWIQTKDGQCGSPLVSTRDGFIVGIHSASNFTNTNNYFTSVPKNFMELLTNQEFQQWVSGWRLNADSVLWGGHKVFMVKPEEPFQPVKEATQL [A196F],0.0788,0.0827,0.0603,0.0625,0.0915,0.0717,0.0617,0.0717,0.0525,0.0538,0.0363,0.0545,0.0605,,,,,
MGESLFKGPRDYNPISSSICHLTNESDGHTTSLYGIGFGPFVITNKHLFRRNNGTLVVQSLHGVFKVKDTTTLQQHLVDGRDMIIIRMPKDFPPFPQKLKFREPQREERICLVTTNFQTKSMSSMVSDTSCTFPSGDGIFWKHWIQTKDGQCGSPLVSTRDGFIVGIHSASNFTNTNNYFTSVPKNFMELLTNQEAQQWVSGWRLNADSVLWGGHKVFMVKPEEPFQPVKEATQL [I42V],0.0884,0.08,0.0807,,0.1,0.0798,0.058,,,0.0721,,,0.0521,0.0706,0.0525,,,
MGESLFKGPRDYNPISSSICHLTNESDGHTTSLYGIGFGPFIITNKHLFRRNNGTLVVQSLHGVFKVKDTTTLQQHLVDGRDMIIIRMPKDFPPFPQKLKFREPQREERICLVTTNFQTKSMSSMVSDTSCTFPSGDGIFWKHWVQTKDGQCGSPLVSTRDGFIVGIHSASNFTNTNNYFTSVPKNFMELLTNQEAQQWVSGWRLNADSVLWGGHKVFMVKPEEPFQPVKEATQL [I145V],0.0668,0.1,0.0589,,,0.0783,0.0681,,0.0665,0.0804,,,,,0.0563,0.0715,0.0757,
MGESLFKGPRDYNPISSSICHLTNESDGHTTSLYGIGFGPFIITNKHLFRRNNGTLVVQSLHGVFKVKDTTTLQQHLVDGRDMIIIRMPKDFPPFPQKLKFREPQREERICLVTTNFQTKSMSSMVSDTSCTFPSGDGIWWKHWIQTKDGQCGSPLVSTRDGFIVGIHSASNFTNTNNYFTSVPKNFMELLTNQEAQQWVSGWRLNADSVLWGGHKVFMVKPEEPFQPVKEATQL [F140W],0.0816,0.0362,0.0499,,,,,,,,,,,,0.0711,,,
MGESLFKGPRDYFPISSSICHLTNESDGHTTSLYGIGFGPFIITNKHLFRRNNGTLVVQSLHGVFKVKDTTTLQQHLVDGRDMIIIRMPKDFPPFPQKLKFREPQREERICLVTTNFQTKSMSSMVSDTSCTFPSGDGIFWKHWIQTKDGQCGSPLVSTRDGFIVGIHSASNFTNTNNYFTSVPKNFMELLTNQEAQQWVSGWRLNADSVLWGGHKVFMVKPEEPFQPVKEATQL [N13F],0.0879,0.0689,0.0611,0.06,0.054,0.065,0.0623,0.0717,0.0673,0.0619,0.0691,0.0722,0.0345,0.0555,0.0536,0.0729,,0.0678
MGESLFKGPRDYNPISSSICHLTNESDGHTVSLYGIGFGPFIITNKHLFRRNNGTLVVQSLHGVFKVKDTTTLQQHLVDGRDMIIIRMPKDFPPFPQKLKFREPQREERICLVTTNFQTKSMSSMVSDTSCTFPSGDGIFWKHWIQTKDGQCGSPLVSTRDGFIVGIHSASNFTNTNNYFTSVPKNFMELLTNQEAQQWVSGWRLNADSVLWGGHKVFMVKPEEPFQPVKEATQL [T31V],0.0771,0.0787,0.0698,0.0813,0.056,0.0703,0.052,0.0754,0.0704,0.0847,0.0729,,0.0394,0.085,0.0506,0.103,,
MGESLFKGPRDYNPISSSICHLTNESDGHTTSLYGIGFGPFIITNKHLFRRNNGTLVVQSLHGVFKVKDTTTLQQHLVDGRDMIIIRMPKDFPPFPQKLKFREPQREERICLVTTNFYTKSMSSMVSDTSCTFPSGDGIFWKHWIQTKDGQCGSPLVSTRDGFIVGIHSASNFTNTNNYFTSVPKNFMELLTNQEAQQWVSGWRLNADSVLWGGHKVFMVKPEEPFQPVKEATQL [Q118Y],0.0703,0.0754,0.0665,,0.0895,,0.0427,0.0513,,,,,0.0491,0.0937,,0.087,0.0484,
MGESLFKGPRDYNPISSSICHLTNESDGHTTSLYGIGFGPFIITNKHLFRRNNGTLVVQSLHGVFKVKDTTTLQQHLVDGRDMIIIRMPKDFPPFPQKLKFREPQREERICLVTTNFQTKSMSSMVSDTSCTFPSGDGIFWKHWIQTKDGQCGSPLVSTRDGFIVGIHSASNFTNTNNYFTSVPKNFMELLTNQEAQQWVSGWRLNADSVLWRGHKVFMVKPEEPFQPVKEATQL [G213R],0.0369,0.0599,0.0608,,,0.0671,0.054,0.062,0.0584,,0.0613,0.0598,0.0606,0.055,0.0577,0.0645,,0.0495
MGESLFKGPRDYNPISSSICHLTNESDGHTTSLYGIGFGPFIITNKHLFRRNNGTLVVQSLHGVFKVKDTTTLQQHLVDGRDMIIIRMPKDFPPFPQKLKFREPQREERICLVTTNFQTKSMSSMVSDTSCTFPSGDGIFWKHWIQTKDGQCGSPLVSTRDGFIVGIHSASNFTNTNNYFTSVPKNFMELLTNHEAQQWVSGWRLNADSVLWGGHKVFMVKPEEPFQPVKEATQL [Q194H],0.0693,0.0468,0.0582,,,0.0589,0.0667,0.0584,0.0741,0.0635,0.059,0.0792,0.0548,0.0733,0.0726,0.0748,,
